Laboratory results as given in the supplement of paper PMC11741623.
Some of the results follow. Interaction screen of human proteins with wild-type SARS-CoV-2 proteins by split-DHFR complementation in yeast, 1 µg/mL methotrexate. Value = fitness of the pair (three or more lineages) minus that of the viral protein without a human partner, on a scale set by negative (0) and fused positive (1) controls, mean of up to three cultures; higher = more likely to interact. Active = false discovery rate below 0.05 (one-sided t-test) in at least one culture. Nearly all pairs are not hits, and differences among them are mostly noise (correlation between cultures about 0.3); most hits were seen in one culture only. Human sequences are the Swiss-Prot entries looked up by gene name; the clone may be another isoform. NSP2 values were corrected by the authors for a growth advantage. Listed are human proteins with a hit and a random twelfth of the others.

Key:
Assay in all cases: yeast fitness gain over the viral ORF with no human partner (scaled fitness); higher = more likely to interact
[1] = target: SARS-CoV-2 NSP12
Protocol: (§1)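 Split mouse DHFR complementation in pooled diploid yeast: human ORFeome clones carry one fragment and viral ORFs the other; barcoded lineages compete in 1 µg/mL methotrexate and fitness is read by barcode sequencing in up to three cultures.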

[2] = target: SARS-CoV-2 NSP13
Protocol: as §1

[3] = target: SARS-CoV-2 NSP2
Protocol: as §1

[4] = target: SARS-CoV-2 NSP4
Protocol: as §1

[5] = target: SARS-CoV-2 ORF3B
Protocol: as §1

[6] = target: SARS-CoV-2 ORF7B
Protocol: as §1

[7] = target: SARS-CoV-2 ORF8
Protocol: as §1

[8] = target: SARS-CoV-2 ORF9B
Protocol: as §1

[9] = target: SARS-CoV-2 S
Protocol: as §1

[10] = target: SARS-CoV-2 NSP5
Protocol: as §1

[11] = target: SARS-CoV-2 NSP8
Protocol: as §1

[12] = target: SARS-CoV-2 ORF10
Protocol: as §1

[13] = target: SARS-CoV-2 ORF6
Protocol: as §1

[14] = target: SARS-CoV-2 ORF7A
Protocol: as §1

[15] = target: SARS-CoV-2 NSP7
Protocol: as §1

[16] = target: SARS-CoV-2 NSP6
Protocol: as §1

Measured: yeast fitness gain

B1: PJA1, Q8NG27 (protein)
chain: MGQESSKPVWPNPTGGYQSNTGRRYGRRHAYVSFRPPTSQRERIASQRKTNSEVPMHRSAPSQTTKRSRSPFSTTRRSWDDSESSGTNLNIDNEDYSRYPPREYRASGSRRGMAYGHIDSYGADDSEEEGAGPVERPPVRGKTGKFKDDKLYDPEKGARSLAGPPPHFSSFSRDVREERDKLDPVPAARCSASRADFLPQSSVASQSSSEGKLATKGDSSERERREQNLPARPSRAPVSICGGGENTSKSAEEPVVRPKIRNLASPNCVKPKIFFDTDDDDDMPHSTSRWRDTANDNEGHSDGLARRGRGESSSGYPEPKYPEDKREARSDQVKPEKVPRRRRTMADPDFWTHSDDYYKYCDEDSDSDKEWIAALRRKYRSREQTLSSSGESWETLPGKEEREPPQAKVSASTGTSPGPGASASAGAGAGASAGSNGSNYLEEVREPSLQEEQASLEEGEIPWLQYHENDSSSEGDNDSGHELMQPGVFMLDGNNNLEDDSSVSEDLEVDWSLFDGFADGLGVAEAISYVDPQFLTYMALEERLAQAMETALAHLESLAVDVEVANPPASKESIDALPEILVTEDHGAVGQEMCCPICCSEYVKGEVATELPCHHYFHKPCVSIWLQKSGTCPVCRCMFPPPL
inactive: [1] -0.0885 | [2] 0.0319 | [3] -0.221 | [4] 0.164 | [5] 0.0667 | [6] -0.015 | [7] -0.0804 | [8] 0.0439 | [9] -0.0422

B2: CLEC2D, Q9UHP7 (protein)
chain: MHDSNNVEKDITPSELPANPGCLHSKEHSIKATLIWRLFFLIMFLTIIVCGMVAALSAIRANCHQEPSVCLQAACPESWIGFQRKCFYFSDDTKNWTSSQRFCDSQDADLAQVESFQELNFLLRYKGPSDHWIGLSREQGQPWKWINGTEWTRQFPILGAGECAYLNDKGASSARHYTERKWICSKSDIHV
inactive: [1] -0.34 | [2] -0.0341 | [3] -0.0972 | [10] 0.00531 | [11] 0.0416 | [12] 0.105 | [5] 0.0283 | [13] -0.218 | [14] -0.0814 | [7] -0.0557 | [8] 0.0152 | [9] -0.0142

B3: SBDS, Q9Y3A5 (protein)
chain: MSIFTPTNQIRLTNVAVVRMKRAGKRFEIACYKNKVVGWRSGVEKDLDEVLQTHSVFVNVSKGQVAKKEDLISAFGTDDQTEICKQILTKGEVQVSDKERHTQLEQMFRDIATIVADKCVNPETKRPYTVILIERAMKDIHYSVKTNKSTKQQALEVIKQLKEKMKIERAHMRLRFILPVNEGKKLKEKLKPLIKVIESEDYGQQLEIVCLIDPGCFREIDELIKKETKGKGSLEVLNLKDVEEGDEKFE
inactive: [1] -0.257 | [12] 0.0836 | [5] -0.0245 | [13] 0.00843

B4: C11orf36, Q2M3A8 (protein)
chain: MDLASEITSATQTSSLCSSGRGHAGYPAPGIVAHGFETHGTARVAQGHLLPPCLLPPPQMPVLAALRDLSRRGSTSSSRSPSRPVSTSASKPCLPASCLGETWSISINLVGSSGHLQSPGAQRDAQRETGCLGPSWLPHHQGRDEELSLSHSAQGEEF
inactive: [1] -0.136 | [3] -0.566 | [10] -0.105 | [12] 0.0762 | [13] -0.025 | [14] 0.0182 | [8] -0.0709

B5: ALKBH2, Q6NS38 (protein)
chain: MDRFLVKGAQGGLLRKQEEQEPTGEEPAVLGGDKESTRKRPRREAPGNGGHSAGPSWRHIRAEGLDCSYTVLFGKAEADEIFQELEKEVEYFTGALARVQVFGKWHSVPRKQATYGDAGLTYTFSGLTLSPKPWIPVLERIRDHVSGVTGQTFNFVLINRYKDGCDHIGEHRDDERELAPGSPIASVSFGACRDFVFRHKDSRGKSPSRRVAVVRLPLAHGSLLMMNHPTNTHWYHSLPVRKKVLAPRVNLTFRKILLTKK
inactive: [1] -0.121 | [2] 0.0266 | [3] -0.207 | [10] 0.0141 | [15] -0.0291 | [11] 0.0235 | [12] 0.0796 | [13] -0.102 | [14] -0.00767 | [6] -0.01 | [7] 0.0172 | [8] -0.113 | [9] -0.45

B6: MAG, P20916 (protein)
chain: MIFLTALPLFWIMISASRGGHWGAWMPSSISAFEGTCVSIPCRFDFPDELRPAVVHGVWYFNSPYPKNYPPVVFKSRTQVVHESFQGRSRLLGDLGLRNCTLLLSNVSPELGGKYYFRGDLGGYNQYTFSEHSVLDIVNTPNIVVPPEVVAGTEVEVSCMVPDNCPELRPELSWLGHEGLGEPAVLGRLREDEGTWVQVSLLHFVPTREANGHRLGCQASFPNTTLQFEGYASMDVKYPPVIVEMNSSVEAIEGSHVSLLCGADSNPPPLLTWMRDGTVLREAVAESLLLELEEVTPAEDGVYACLAENAYGQDNRTVGLSVMYAPWKPTVNGTMVAVEGETVSILCSTQSNPDPILTIFKEKQILSTVIYESELQLELPAVSPEDDGEYWCVAENQYGQRATAFNLSVEFAPVLLLESHCAAARDTVQCLCVVKSNPEPSVAFELPSRNVTVNESEREFVYSERSGLVLTSILTLRGQAQAPPRVICTARNLYGAKSLELPFQGAHRLMWAKIGPVGAVVAFAILIAIVCYITQTRRKKNVTESPSFSAGDNPPVLFSSDFRISGAPEKYESERRLGSERRLLGLRGEPPELDLSYSHSDLGKRPTKDSYTLTEELAEYAEIRVK
inactive: [1] -0.0918 | [2] 0.106 | [3] -0.2 | [12] -0.0381 | [8] -0.0043

B7: PATE1, Q8WXA2 (protein)
chain: MDKSLLLELPILLCCFRALSGSLSMRNDAVNEIVAVKNNFPVIEIVQCRMCHLQFPGEKCSRGRGICTATTEEACMVGRMFKRDGNPWLTFMGCLKNCADVKGIRWSVYLVNFRCCRSHDLCNEDL
inactive: [1] -0.198 | [2] -0.0304 | [3] -0.0508 | [16] 0.145 | [11] 0.149 | [5] 0.0635 | [13] -0.082 | [6] -0.124 | [7] -0.152 | [8] -0.0666 | [9] 0.026

B8: HDC, P19113 (protein)
chain: MMEPEEYRERGREMVDYICQYLSTVRERRVTPDVQPGYLRAQLPESAPEDPDSWDSIFGDIERIIMPGVVHWQSPHMHAYYPALTSWPSLLGDMLADAINCLGFTWASSPACTELEMNVMDWLAKMLGLPEHFLHHHPSSQGGGVLQSTVSESTLIALLAARKNKILEMKTSEPDADESCLNARLVAYASDQAHSSVEKAGLISLVKMKFLPVDDNFSLRGEALQKAIEEDKQRGLVPVFVCATLGTTGVCAFDCLSELGPICAREGLWLHIDAAYAGTAFLCPEFRGFLKGIEYADSFTFNPSKWMMVHFDCTGFWVKDKYKLQQTFSVNPIYLRHANSGVATDFMHWQIPLSRRFRSVKLWFVIRSFGVKNLQAHVRHGTEMAKYFESLVRNDPSFEIPAKRHLGLVVFRLKGPNCLTENVLKEIAKAGRLFLIPATIQDKLIIRFTVTSQFTTRDDILRDWNLIRDAATLILSQHCTSQPSPRVGNLISQIRGARAWACGTSLQSVSGAGDDPVQARKIIKQPQRVGAGPMKRENGLHLETLLDPVDDCFSEEAPDATKHKLSSFLFSYLSVQTKKKTVRSLSCNSVPVSAQKPLPTEASVKNGGSSRVRIFSRFPEDMMMLKKSAFKKLIKFYSVPSFPECSSQCGLQLPCCPLQAMV
inactive: [1] -0.18 | [2] -0.0179 | [3] -0.187 | [10] -0.0322 | [5] -0.216 | [13] -0.204 | [14] -0.113 | [6] 0.00716 | [8] -0.0184

B9: ASAH1, Q13510 (protein)
chain: MPGRSCVALVLLAAAVSCAVAQHAPPWTEDCRKSTYPPSGPTYRGAVPWYTINLDLPPYKRWHELMLDKAPVLKVIVNSLKNMINTFVPSGKIMQVVDEKLPGLLGNFPGPFEEEMKGIAAVTDIPLGEIISFNIFYELFTICTSIVAEDKKGHLIHGRNMDFGVFLGWNINNDTWVITEQLKPLTVNLDFQRNNKTVFKASSFAGYVGMLTGFKPGLFSLTLNERFSINGGYLGILEWILGKKDVMWIGFLTRTVLENSTSYEEAKNLLTKTKILAPAYFILGGNQSGEGCVITRDRKESLDVYELDAKQGRWYVVQTNYDRWKHPFFLDDRRTPAKMCLNRTSQENISFETMYDVLSTKPVLNKLTVYTTLIDVTKGQFETYLRDCPDPCIGW
inactive: [1] 0.133 | [2] 0.0737 | [10] 0.0442 | [13] 0.053 | [8] 0.013 | [9] 0.159

B10: AIF1, P55008 (protein)
chain: MSQTRDLQGGKAFGLLKAQQEERLDEINKQFLDDPKYSSDEDLPSKLEGFKEKYMEFDLNGNGDIDIMSLKRMLEKLGVPKTHLELKKLIGEVSSGSGETFSYPDFLRMMLGKRSAILKMILMYEEKAREKEKPTGPPAKKAISELP
inactive: [1] -0.227 | [2] -0.24 | [3] 0.1 | [12] -0.111 | [5] 0.0763 | [13] -0.00304 | [7] -0.081

B11: TMEM108, Q6UXF1 (protein)
chain: MKRSLQALYCQLLSFLLILALTEALAFAIQEPSPRESLQVLPSGTPPGTMVTAPHSSTRHTSVVMLTPNPDGPPSQAAAPMATPTPRAEGHPPTHTISTIAATVTAPHSESSLSTGPAPAAMATTSSKPEGRPRGQAAPTILLTKPPGATSRPTTAPPRTTTRRPPRPPGSSRKGAGNSSRPVPPAPGGHSRSKEGQRGRNPSSTPLGQKRPLGKIFQIYKGNFTGSVEPEPSTLTPRTPLWGYSSSPQPQTVAATTVPSNTSWAPTTTSLGPAKDKPGLRRAAQGGGSTFTSQGGTPDATAASGAPVSPQAAPVPSQRPHHGDPQDGPSHSDSWLTVTPGTSRPLSTSSGVFTAATGPTPAAFDTSVSAPSQGIPQGASTTPQAPTHPSRVSESTISGAKEETVATLTMTDRVPSPLSTVVSTATGNFLNRLVPAGTWKPGTAGNISHVAEGDKPQHRATICLSKMDIAWVILAISVPISSCSVLLTVCCMKRKKKTANPENNLSYWNNTITMDYFNRHAVELPREIQSLETSEDQLSEPRSPANGDYRDTGMVLVNPFCQETLFVGNDQVSEI
inactive: [1] 0.0853 | [13] -0.0262
